Where “and” joins values, the source holds several entries; their conditions need not be identical. Equal entries are not always repeated.
Experiments:
[1] = molecular target: PF-7802-labelled proteins in ARPE-19 cells (Homo sapiens, UniProt P51991); details: protein HNRNPA3 Heterogeneous nuclear ribonucleoprotein A3 (P51991); one column per replicate
[2] = molecular target: PF-7802-labelled proteins in ARPE-19 cells (Homo sapiens, UniProt Q13263); details: TRIM28 Transcription intermediary factor 1-beta (Q13263)
[3] = molecular target: PF-7802-labelled proteins in ARPE-19 cells (Homo sapiens, UniProt P08238)
[4] = molecular target: PF-7802-labelled proteins in ARPE-19 cells (Homo sapiens, UniProt P60709)
[5] = molecular target: PF-7802-labelled proteins in ARPE-19 cells (Homo sapiens, UniProt Q96JH7); details: VCPIP1 Deubiquitinating protein VCIP135 (Q96JH7)
[6] = molecular target: PF-7802-labelled proteins in ARPE-19 cells (Homo sapiens, UniProt P24844); details: protein MYL9 Myosin regulatory light polypeptide 9 (P24844); replicates in separate columns
[7] = molecular target: PF-7802-labelled proteins in ARPE-19 cells (Homo sapiens, UniProt Q96RQ3)
[8] = molecular target: PF-7802-labelled proteins in ARPE-19 cells (Homo sapiens, UniProt Q9NR12); details: protein PDLIM7 PDZ and LIM domain protein 7 (Q9NR12); replicates in separate columns
[9] = molecular target: PF-7802-labelled proteins in ARPE-19 cells (Homo sapiens, UniProt P0CG39)
[10] = molecular target: PF-7802-labelled proteins in ARPE-19 cells (Homo sapiens, UniProt Q96L21); details: protein RPL10L 60S ribosomal protein L10-like, Q96L21
[11] = molecular target: PF-7802-labelled proteins in ARPE-19 cells (Homo sapiens, UniProt P07237)
[12] = molecular target: PF-7802-labelled proteins in ARPE-19 cells (Homo sapiens, UniProt P62081); details: protein RPS7 40S ribosomal protein S7, P62081
[13] = molecular target: PF-7802-labelled proteins in ARPE-19 cells (Homo sapiens, UniProt Q8TCT9); details: protein HM13 Minor histocompatibility antigen H13 (Q8TCT9); one column per replicate
[14] = molecular target: PF-7802-labelled proteins in ARPE-19 cells (Homo sapiens, UniProt P56134); details: protein ATP5J2 ATP synthase subunit f, mitochondrial (P56134)
[15] = molecular target: PF-7802-labelled proteins in ARPE-19 cells (Homo sapiens, UniProt P14406); details: protein COX7A2 Cytochrome c oxidase subunit 7A2, mitochondrial (P14406)
[16] = molecular target: PF-7802-labelled proteins in ARPE-19 cells (Homo sapiens, UniProt Q9BVA1); details: TUBB2B Tubulin beta-2B chain (Q9BVA1)
[17] = molecular target: PF-7802-labelled proteins in ARPE-19 cells (Homo sapiens, UniProt P62829); details: protein RPL23 60S ribosomal protein L23, P62829
[18] = molecular target: PF-7802-labelled proteins in ARPE-19 cells (Homo sapiens, UniProt P05556); details: protein ITGB1 Integrin beta-1 (P05556); one column per replicate
[19] = molecular target: PF-7802-labelled proteins in ARPE-19 cells (Homo sapiens, UniProt Q16881); details: TXNRD1 Thioredoxin reductase 1, cytoplasmic (Q16881)
[20] = molecular target: PF-7802-labelled proteins in ARPE-19 cells (Homo sapiens, UniProt P62851); details: protein RPS25 40S ribosomal protein S25, P62851
[21] = molecular target: PF-7802-labelled proteins in ARPE-19 cells (Homo sapiens, UniProt P06737); details: protein PYGL Glycogen phosphorylase, liver form, P06737
[22] = molecular target: PF-7802-labelled proteins in ARPE-19 cells (Homo sapiens, UniProt P05166); details: protein PCCB Propionyl-CoA carboxylase beta chain, mitochondrial (P05166); replicates in separate columns
[23] = molecular target: PF-7802-labelled proteins in ARPE-19 cells (Homo sapiens, UniProt Q96PK6); details: protein RBM14 RNA-binding protein 14, Q96PK6
[24] = molecular target: PF-7802-labelled proteins in ARPE-19 cells (Homo sapiens, UniProt Q9H2U2); details: protein PPA2 Inorganic pyrophosphatase 2, mitochondrial, Q9H2U2
[25] = molecular target: PF-7802-labelled proteins in ARPE-19 cells (Homo sapiens, UniProt P55209); details: protein NAP1L1 Nucleosome assembly protein 1-like 1 (P55209); replicates in separate columns
[26] = molecular target: PF-7802-labelled proteins in ARPE-19 cells (Homo sapiens, UniProt O43790); details: protein KRT86 Keratin, type II cuticular Hb6 (O43790); replicates in separate columns

UniProt Q16881, sequence (Q16881 whole entry): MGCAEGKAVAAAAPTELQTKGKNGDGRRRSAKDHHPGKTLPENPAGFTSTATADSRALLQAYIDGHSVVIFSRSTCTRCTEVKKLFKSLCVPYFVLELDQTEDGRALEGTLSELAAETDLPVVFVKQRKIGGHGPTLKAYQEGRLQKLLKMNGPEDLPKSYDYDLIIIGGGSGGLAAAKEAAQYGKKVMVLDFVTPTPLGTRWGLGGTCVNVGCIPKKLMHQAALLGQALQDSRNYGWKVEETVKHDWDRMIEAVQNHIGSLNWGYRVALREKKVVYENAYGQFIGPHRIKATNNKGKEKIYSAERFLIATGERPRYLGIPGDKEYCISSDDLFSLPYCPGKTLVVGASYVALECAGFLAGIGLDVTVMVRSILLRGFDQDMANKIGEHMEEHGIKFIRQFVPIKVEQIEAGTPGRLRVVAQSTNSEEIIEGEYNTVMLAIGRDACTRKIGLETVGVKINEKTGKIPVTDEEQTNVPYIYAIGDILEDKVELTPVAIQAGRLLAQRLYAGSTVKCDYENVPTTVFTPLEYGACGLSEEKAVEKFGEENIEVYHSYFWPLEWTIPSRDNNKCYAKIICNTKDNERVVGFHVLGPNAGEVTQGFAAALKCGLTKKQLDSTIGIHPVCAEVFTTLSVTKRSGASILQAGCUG
UniProt P08238, sequence (P08238 whole entry): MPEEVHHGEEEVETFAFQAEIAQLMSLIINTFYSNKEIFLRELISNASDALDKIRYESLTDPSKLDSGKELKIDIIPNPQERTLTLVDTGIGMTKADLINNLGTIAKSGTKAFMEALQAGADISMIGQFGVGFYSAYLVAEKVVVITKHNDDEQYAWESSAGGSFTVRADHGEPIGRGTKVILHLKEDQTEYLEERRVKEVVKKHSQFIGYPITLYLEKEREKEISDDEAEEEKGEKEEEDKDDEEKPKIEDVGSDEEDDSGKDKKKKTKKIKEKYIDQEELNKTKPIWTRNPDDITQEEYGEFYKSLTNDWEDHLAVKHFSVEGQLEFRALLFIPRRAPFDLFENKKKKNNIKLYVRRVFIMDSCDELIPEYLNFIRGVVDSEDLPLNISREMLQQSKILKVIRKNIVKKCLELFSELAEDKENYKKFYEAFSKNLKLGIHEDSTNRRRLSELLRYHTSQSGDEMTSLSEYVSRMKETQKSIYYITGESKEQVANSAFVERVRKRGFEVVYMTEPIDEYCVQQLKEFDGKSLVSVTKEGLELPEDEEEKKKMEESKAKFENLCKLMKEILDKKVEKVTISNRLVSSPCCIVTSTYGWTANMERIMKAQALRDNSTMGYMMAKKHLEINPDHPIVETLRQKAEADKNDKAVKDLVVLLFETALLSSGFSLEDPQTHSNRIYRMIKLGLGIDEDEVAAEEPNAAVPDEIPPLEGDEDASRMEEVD
UniProt P0CG39, sequence (P0CG39 whole entry): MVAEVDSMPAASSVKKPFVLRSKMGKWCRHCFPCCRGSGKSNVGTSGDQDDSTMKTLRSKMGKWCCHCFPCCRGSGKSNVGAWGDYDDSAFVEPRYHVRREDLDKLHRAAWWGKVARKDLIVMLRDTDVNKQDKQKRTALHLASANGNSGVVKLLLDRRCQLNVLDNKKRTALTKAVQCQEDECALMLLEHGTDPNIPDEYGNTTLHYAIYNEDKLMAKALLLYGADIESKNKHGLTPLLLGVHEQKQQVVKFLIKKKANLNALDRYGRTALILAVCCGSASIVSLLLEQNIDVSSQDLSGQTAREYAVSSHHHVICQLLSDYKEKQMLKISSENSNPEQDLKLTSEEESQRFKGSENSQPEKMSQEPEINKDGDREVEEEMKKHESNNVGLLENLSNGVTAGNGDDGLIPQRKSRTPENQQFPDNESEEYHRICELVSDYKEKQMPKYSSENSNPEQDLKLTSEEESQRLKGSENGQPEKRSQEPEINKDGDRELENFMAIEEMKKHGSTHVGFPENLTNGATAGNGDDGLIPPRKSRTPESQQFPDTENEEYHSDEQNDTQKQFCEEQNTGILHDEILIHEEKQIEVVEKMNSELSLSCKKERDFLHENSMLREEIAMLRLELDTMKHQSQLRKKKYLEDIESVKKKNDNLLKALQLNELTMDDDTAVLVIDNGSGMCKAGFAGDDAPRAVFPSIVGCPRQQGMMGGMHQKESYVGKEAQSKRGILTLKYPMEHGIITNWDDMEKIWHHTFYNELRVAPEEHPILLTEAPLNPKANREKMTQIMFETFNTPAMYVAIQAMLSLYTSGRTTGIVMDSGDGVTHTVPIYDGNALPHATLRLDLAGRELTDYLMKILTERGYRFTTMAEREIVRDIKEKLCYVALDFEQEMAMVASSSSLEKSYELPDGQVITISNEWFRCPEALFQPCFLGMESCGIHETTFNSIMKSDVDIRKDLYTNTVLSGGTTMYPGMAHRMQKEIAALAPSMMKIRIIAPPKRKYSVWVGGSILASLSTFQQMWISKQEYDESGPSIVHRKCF
UniProt Q8TCT9, sequence (Q8TCT9 whole entry): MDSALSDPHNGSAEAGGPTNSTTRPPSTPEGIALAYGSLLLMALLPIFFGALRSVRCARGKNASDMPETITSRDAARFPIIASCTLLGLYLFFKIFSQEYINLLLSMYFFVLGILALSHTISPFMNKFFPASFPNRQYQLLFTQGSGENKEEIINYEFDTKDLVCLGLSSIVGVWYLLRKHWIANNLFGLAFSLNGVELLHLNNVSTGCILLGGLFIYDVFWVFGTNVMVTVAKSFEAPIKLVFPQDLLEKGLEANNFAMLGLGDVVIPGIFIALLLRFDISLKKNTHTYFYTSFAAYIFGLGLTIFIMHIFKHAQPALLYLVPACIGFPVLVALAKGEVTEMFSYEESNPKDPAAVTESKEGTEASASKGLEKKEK
UniProt P56134, sequence (P56134 whole entry): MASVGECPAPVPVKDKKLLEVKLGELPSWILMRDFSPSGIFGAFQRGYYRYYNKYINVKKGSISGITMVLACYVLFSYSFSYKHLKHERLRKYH
UniProt P24844, sequence (P24844 whole entry): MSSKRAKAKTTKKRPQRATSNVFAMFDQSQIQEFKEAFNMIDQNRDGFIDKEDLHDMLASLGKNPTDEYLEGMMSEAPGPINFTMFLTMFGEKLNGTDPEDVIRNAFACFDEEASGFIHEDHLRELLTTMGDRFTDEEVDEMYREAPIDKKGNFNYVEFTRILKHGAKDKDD
UniProt Q96PK6, sequence (Q96PK6 whole entry): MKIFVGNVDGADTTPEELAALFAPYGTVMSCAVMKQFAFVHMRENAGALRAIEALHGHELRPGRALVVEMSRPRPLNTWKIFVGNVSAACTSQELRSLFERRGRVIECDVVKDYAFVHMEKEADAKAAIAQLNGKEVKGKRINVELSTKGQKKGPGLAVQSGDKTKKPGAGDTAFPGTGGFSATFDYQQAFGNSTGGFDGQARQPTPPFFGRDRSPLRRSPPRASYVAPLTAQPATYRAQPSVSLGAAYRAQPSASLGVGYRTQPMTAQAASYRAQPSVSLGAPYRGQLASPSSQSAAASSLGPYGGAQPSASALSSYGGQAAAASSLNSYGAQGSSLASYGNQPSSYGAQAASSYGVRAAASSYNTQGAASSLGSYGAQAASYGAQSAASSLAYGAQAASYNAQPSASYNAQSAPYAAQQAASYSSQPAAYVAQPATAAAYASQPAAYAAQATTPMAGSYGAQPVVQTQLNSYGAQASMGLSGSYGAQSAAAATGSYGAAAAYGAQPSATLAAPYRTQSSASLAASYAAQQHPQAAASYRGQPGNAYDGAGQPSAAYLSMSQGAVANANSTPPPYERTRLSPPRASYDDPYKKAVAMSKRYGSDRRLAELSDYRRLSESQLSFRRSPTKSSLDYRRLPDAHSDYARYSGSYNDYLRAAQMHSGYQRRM
UniProt Q96JH7, sequence (Q96JH7 whole entry): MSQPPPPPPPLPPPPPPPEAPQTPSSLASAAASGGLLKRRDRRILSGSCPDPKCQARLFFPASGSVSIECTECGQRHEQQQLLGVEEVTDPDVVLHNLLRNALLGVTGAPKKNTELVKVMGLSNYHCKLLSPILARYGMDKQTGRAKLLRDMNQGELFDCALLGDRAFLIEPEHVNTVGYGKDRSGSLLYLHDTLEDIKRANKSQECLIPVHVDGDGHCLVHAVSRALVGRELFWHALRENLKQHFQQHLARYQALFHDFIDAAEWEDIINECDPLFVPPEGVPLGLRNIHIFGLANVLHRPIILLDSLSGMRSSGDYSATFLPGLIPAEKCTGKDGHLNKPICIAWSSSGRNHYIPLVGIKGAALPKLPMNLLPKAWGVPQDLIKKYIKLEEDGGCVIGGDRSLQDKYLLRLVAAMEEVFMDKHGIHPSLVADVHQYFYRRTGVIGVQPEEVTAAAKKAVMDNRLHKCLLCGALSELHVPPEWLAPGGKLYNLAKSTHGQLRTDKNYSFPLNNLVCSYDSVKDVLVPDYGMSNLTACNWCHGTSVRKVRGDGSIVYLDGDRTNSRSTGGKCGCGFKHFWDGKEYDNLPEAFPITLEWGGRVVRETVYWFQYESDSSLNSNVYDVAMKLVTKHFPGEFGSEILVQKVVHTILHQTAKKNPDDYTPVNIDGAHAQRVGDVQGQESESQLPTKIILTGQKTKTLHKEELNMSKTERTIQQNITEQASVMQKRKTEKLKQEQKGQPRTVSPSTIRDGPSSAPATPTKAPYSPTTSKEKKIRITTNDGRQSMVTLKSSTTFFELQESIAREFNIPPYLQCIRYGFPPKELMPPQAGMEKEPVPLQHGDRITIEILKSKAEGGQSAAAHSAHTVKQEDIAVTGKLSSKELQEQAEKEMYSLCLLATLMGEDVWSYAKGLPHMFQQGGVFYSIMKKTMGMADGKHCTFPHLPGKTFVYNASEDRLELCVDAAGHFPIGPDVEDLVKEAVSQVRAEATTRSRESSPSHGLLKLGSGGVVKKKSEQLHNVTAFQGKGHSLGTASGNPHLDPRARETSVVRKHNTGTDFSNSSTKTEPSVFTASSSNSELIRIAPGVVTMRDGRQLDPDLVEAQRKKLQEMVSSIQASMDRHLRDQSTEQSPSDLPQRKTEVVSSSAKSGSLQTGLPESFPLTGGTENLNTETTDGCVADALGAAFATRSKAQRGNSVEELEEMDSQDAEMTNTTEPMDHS

For CNC1CCN(C(=O)C[C@@H](Cc2ccccc2)C(=O)N[C@@H](CSC)C(=O)N[C@@H](CC2CCCCC2)[C@@H](O)C(=O)OC(C)C)CC1 [CP-108671, reference compound], the “Median SILAC Ratio (Heavy/Light)” value [1] was 1.138, the “Median SILAC Ratio (Heavy/Light)” value [2] was 0.09404 and the “SILAC ratio (DMSO/CP-108671)” value ([3]; P08238 HSP90AB1 Heat shock protein HSP 90-beta) was 0.52. For the same molecule, the “Median SILAC Ratio (Heavy/Light)” value ([3]; protein HSP90AB1 Heat shock protein HSP 90-beta (P08238), one column per replicate) was 1.922, the “SILAC ratio (DMSO/CP-108671)” value ([4]; P60709 ACTB Actin, cytoplasmic 1) was 0.85 and the “Median SILAC Ratio (Heavy/Light)” value ([4]; protein ACTB Actin, cytoplasmic 1 (P60709)) was 1.211 and 0.8007. The “Median SILAC Ratio (Heavy/Light)” value [5] was 18.2648, the “Median SILAC Ratio (Heavy/Light)” value [6] was 1.817 and the “SILAC ratio (DMSO/CP-108671)” value ([7]; Q96RQ3 MCCC1 Methylcrotonoyl-CoA carboxylase subunit alpha, mitochondrial) was 0.86. For the same molecule, the “Median SILAC Ratio (Heavy/Light)” value ([7]; protein MCCC1 Methylcrotonoyl-CoA carboxylase subunit alpha, mitochondrial (Q96RQ3), replicates in separate columns) was 1.161, the “Median SILAC Ratio (Heavy/Light)” value [8] was 2.345 and the “SILAC ratio (DMSO/CP-108671)” value ([9]; P0CG39 POTEJ POTE ankyrin domain family member J) was 0.83. The “Median SILAC Ratio (Heavy/Light)” value ([9]; protein POTEJ POTE ankyrin domain family member J, P0CG39) was 1.199, the “Median SILAC Ratio (Heavy/Light)” value [10] was 1.724 and the “SILAC ratio (DMSO/CP-108671)” value ([11]; P07237 P4HB Protein disulfide-isomerase) was 0.89. The “Median SILAC Ratio (Heavy/Light)” value ([11]; protein P4HB Protein disulfide-isomerase (P07237), replicates in separate columns) was 1.179 and 0.8914.

With Cc1cc([C@H]2C[C@H]3[C@@H](C)SC(N)=N[C@@]3(c3ccc(F)cc3F)CO2)on1 [PF-9283] the “Median SILAC Ratio (Heavy/Light)” value [12] was 1.536, the “Median SILAC Ratio (Heavy/Light)” value [13] was 0.6468 and 1.734 and the “Median SILAC Ratio (Heavy/Light)” value [14] was 0.7563. For the same molecule, the “Median SILAC Ratio (Heavy/Light)” value [15] was 0.8985, the “Median SILAC Ratio (Heavy/Light)” value [16] was 1.522 and the “Median SILAC Ratio (Heavy/Light)” value [17] was 1.182. For the same molecule, the “Median SILAC Ratio (Heavy/Light)” value [18] was 1.31 and 0.6734 and 0.9023, the “Median SILAC Ratio (Heavy/Light)” value [19] was 1.388 and 0.9612 and the “Median SILAC Ratio (Heavy/Light)” value [20] was 1.354. For the same molecule, the “Median SILAC Ratio (Heavy/Light)” value [21] was 1.2659, the “Median SILAC Ratio (Heavy/Light)” value [22] was 0.8933 and 1.076 and the “Median SILAC Ratio (Heavy/Light)” value [23] was 1.076. The “Median SILAC Ratio (Heavy/Light)” value [24] was 1.3861, the “Median SILAC Ratio (Heavy/Light)” value [25] was 2.407 and the “Median SILAC Ratio (Heavy/Light)” value [26] was 115.765.

— article PMC5062570 (Nature Communications, 2016)
